# US20260201030A1 (EVOPOINT BIOSCIENCES, published 2026)
# Positions count from the first letter of the chain named.
# B1: 2D3A11-HZ1 (antibody, human IgG1, kappa)
# heavy: QVQLVQSGAEVKKPGASVKVSCKASGYTFTSYVVHWVRQAPGQGLEWMGYINPYNADSKYSQEFQGRATLTSDKSASTAYMELSSLRSEDMAVYYCSRSYYGNSFDVWGQGTLVTVSS[human IgG1 constant region omitted here]
# light: DIVMTQSPDSLAVSLGERATINCKSSQSLLNSGNQKNYLTWYQQKPGQSPKLLFFWASTRQSGVPDRFSGSGSGTDFTLTISSLQAEDVAVYYCQNDYYFPFTFGQGTKVEIKRTVAAPSVFIFPPSDEQLKSGTASVVCLLNNFYPREAKVQWKVDNALQSGNSQESVTEQDSKDSTYSLSSTLTLSKADYEKHKVYACEVTHQGLSSPVTKSFNRGEC
# notes: Humanized
# B2: 2D3A11-HZ2 (antibody, human IgG1, kappa)
# heavy: B1 heavy with Q6E
# light: B1 light
# notes: Humanized; also called 2D3A-HZ2
# How the values were obtained:
# [1] = target: T1, human Claudin18.2 (human, UniProt P56856-2 1-261); experiment: cell-based ELISA (OD450) on NUGC4 cells (endogenous human Claudin18.2)
# T1 construct: whole, on cells; also called CLDN18.2; HEK293T-Claudin18.2 (human)
# [2] = target: T2, human Claudin18.1 (human, UniProt P56856 1-261); experiment: FACS on HEK293T-Claudin18.1 (human) cells
# T2 construct: whole, on cells; also called CLDN18.1; HEK293T-Claudin18.1 (human)
# [3] = target: T1, human Claudin18.2; experiment: FACS on HEK293T-Claudin18.2 (human) cells
# Experimental: The affinity of the anti-human Claudin18.2 humanized antibodies was detected by flow cytometry. The experimental procedures were as follows: The adherent cultured HEK293T-Claudin18.2 (human), NUGC4-Claudin18.2 (human) and NUGC4 cells were digested, collected by centrifugation, and washed three times with pre-cooled PBS. The cells were resuspended in 1% BSA (in PBS) and added to a 96-well pointed bottom plate at 3×10⁵ cells/well, with a volume of 50 μL per well. Each test antibody was diluted with 1% BSA (in PBS) (starting at 100 μg/mL, diluted in a 3-fold gradient, for 10 concentration points). The test antibody subjected to gradient dilution was added to the cells at 50 μL/well, and the mixture was well mixed and incubated at 4° C. for 1 h. The cells were collected by centrifugation, washed three times with pre-cooled PBS, and resuspended in 50 μL of 1% BSA (in PBS). 1 μL of a fluorescent secondary antibody (Biolegend-410712) was added to each well, and the mixture was well mixed and incubated at 4° C. for 0.5 h. The cells were collected by centrifugation, washed three times with pre-cooled PBS, resuspended in 200 μL of PBS, and assayed on a machine.
# [4] = target: T1, human Claudin18.2; experiment: cell-based ELISA on HEK293T-Claudin18.2 (human) cells
# Experimental: The affinity of the anti-human Claudin18.2 murine monoclonal antibodies was evaluated by cell-based ELISA. The experimental procedures were as follows: The day before the experiment, HEK293T-Claudin18.2 (human) cells were plated in a 96-well plate at 5×10⁴ cells/well. On the day of the experiment, the supernatant was removed, the cells in each well were washed once with 300 μL of PBS, and 100 μL of 4% paraformaldehyde was added to each well for fixation at room temperature for 20 min. Paraformaldehyde was then removed, and the cells in each well were washed twice with 300 μL of PBS. 100 μL of 2% BSA (in PBS) was added to each well, and the mixture was blocked at 37° C. for 2 h. After removing the blocking solution, each antibody subjected to gradient dilution (diluted with 2% BSA (in PBS), starting at […], in a 3-fold gradient, for a total of 11 concentration points) was added to the plate at 100 μL/well, and the mixture was incubated at 37° C. for 2 h. The supernatant was removed, and the cells in each well were washed three times with 300 μL of PBST. […] The reaction was stopped by adding 50 μL of 2 N HCl to each well, and OD_{450 nm} values were read on a microplate reader (manufacturer: MD, model: SpectraMax). […]
# The affinity of the anti-human Claudin18.2 humanized monoclonal antibodies was determined by cell-based ELISA. […]
# [5] = target: T1, human Claudin18.2; experiment: cell-based or functional assay
# [6] = target: T1, human Claudin18.2; experiment: cell-based ELISA on L929-Claudin18.2 (human) cells
# [7] = target: T1, human Claudin18.2; experiment: cell-based ELISA on NUGC4 cells (endogenous human Claudin18.2)
# [8] = target: T2, human Claudin18.1; experiment: FACS on HEK293T-Claudin18.1 (human) cells, antibody 50 µg/mL
# Experimental: The specificity of the anti-human Claudin18.2 humanized monoclonal antibodies was determined by flow cytometry (FACS). The experimental procedures were as follows: HEK293T-Claudin18.1 (human) cells were digested, collected by centrifugation, washed three times with pre-cooled PBS, resuspended in 1% BSA (in PBS), and added to a 96-well pointed bottom plate at 3×10⁵ cells/well. Each test antibody with a final concentration of 50 μg/mL was added, and the mixture was incubated at 4° C. for 1 h. The cells were washed three times with pre-cooled PBS, and then 1 μL of a fluorescent secondary antibody (APC: Biolegend-410712 or PE: BioLegend-410708) was added to each well. The mixture was incubated at 4° C. for 0.5 h, and the cells were washed three times with pre-cooled PBS, then resuspended, and assayed on a flow cytometer. For reference, anti-human Claudin18.1 positive control antibodies (positive control antibody-1 and positive control antibody-2) were included in the experiment.
Binder,Maximum signal value [1],binding result [2],EC50 [3] [µg/mL],Maximum signal value [3],EC50 [4] [µg/mL],"ADCC activity EC50 (Jurkat-NFAT-CD16a luciferase reporter, HEK293T-Claudin18.2 (human) target cells) [5] [µg/mL]","CDC activity EC50 (guinea pig serum killing, CCK8, HEK293T-Claudin18.2 (human) cells) [5] [µg/mL]",EC50 [6] [µg/mL],EC50 [7] [µg/mL],Positive rate (%) [8] [%]
B1,0.316,no binding (tested: 50 µg/mL),0.369,133000,0.0127,0.0479,1.9,0.0171,0.0952,0.69
B2,,no binding (tested: 50 µg/mL),,,0.014,,,0.0256,,1
